Measurements taken from the supplement of paper PMC4723716.
± gives the uncertainty stated by the source. The full ranking holds about 9,900 compounds; the median of “viability index relative to DMSO control” is about 1, and the lowest 2% start at about 0.85. The list shows a part of the results.

What follows are compounds tested on Plasmodium falciparum NF54 stage V gametocytes (assay: viability index relative to DMSO control (fraction); higher = less gametocyte killing). Settings: 2.5 µM, library set: Broad Institute DOS, incubation time: 72 h.
Procedure, shortened: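 Stage V gametocytes of P. falciparum NF54 were held in serum-free screening medium at 0.75% gametocytemia and 1.25% hematocrit, 10 µl per well of a 1,536-well plate, and exposed to compound at 2.5 µM for 72 hr at 37°C under low oxygen. A 3 µl mix of 2.5 µM MitoTracker Red CMXRos with 0.13% saponin was then added for one to two hours, after which one field per well was imaged and red particles of 20–70 µm2 were counted. The viability index equals this count divided by the plate mean from wells given solvent alone.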
With `CS(=O)(=O)N1[C@@H]2c3ccc(-c4cccc(F)c4)c(=O)n3C[C@H]1[C@H](CO)[C@H]2C(=O)N1CCCCC1` the viability index was 1.03 ± 0.02. `Fc1cccc(-c2ccc([C@@H]3[C@H]4CNC[C@@H]3N4Cc3cncnc3)cc2)c1` was tested, and the viability index was 1.09 ± 0.027. In the case of `CCCNC(=O)N1[C@@H]2CN(C(=O)Nc3cccc(Cl)c3)c3ccccc3[C@@H]2[C@@H]1CO`, the viability index is reported as 1.02 ± 0.1. For `C[C@H](CO)N1C[C@H](C)[C@H](CN(C)C(=O)NC2CCCCC2)Oc2ncc(-c3cccc(F)c3)cc2C1=O`, the viability index was 1.01 ± 0.084. `Cc1nc(N2[C@@H](C#N)[C@H](c3ccccc3)[C@@H]2CO)sc1C` gave a viability index of 1.05 ± 0.022. For `C[C@@H]1CN([C@@H](C)CO)C(=O)CCCn2nncc2CO[C@@H]1CN(C)Cc1cccc(C(F)(F)F)c1`, the viability index was 1.02 ± 0.051. In the case of `COc1ccc2c3c([C@@H](CO)N(C[C@]33CCN(Cc4cncnc4)CC3)S(C)(=O)=O)n(C)c2c1`, the viability index is reported as 1.09 ± 0.044. Work on `Cc1noc(C)c1S(=O)(=O)Nc1ccc2c(c1)CC(=O)N([C@@H](C)CO)C[C@@H](C)[C@H](CN(C)Cc1ccc(Oc3ccccc3)cc1)O2` yielded a viability index of 1.05 ± 0.036. `c1cc(-c2ccc([C@H]3[C@@H]4CN(Cc5nccs5)C[C@H]3N4)cc2)ccn1` was tested, and the viability index was 1.12 ± 0.077. Work on `C[C@H]1CCCCO[C@@H](CN(C)C(=O)c2ccncc2)[C@@H](C)CN([C@@H](C)CO)C(=O)c2cc(NC(=O)CCC(F)(F)F)ccc2O1` yielded a viability index of 1.09 ± 0.091. `CO[C@@H]1CN(C)C(=O)c2ccc(NC(=O)c3cc(C)on3)cc2OC[C@H](C)NC[C@H]1C` was tested, and the viability index was 1 ± 0.11. For `C/C=C/c1ccc([C@@H]2[C@H]3CNC[C@@H]2N3Cc2ccc3c(c2)OCO3)cc1`, the viability index was 0.994 ± 0.12. `O=C(C[C@@H]1CC[C@H]2[C@@H](COC[C@@H](O)CN2Cc2nccs2)O1)N1CCC(Cc2ccccc2)CC1` was tested, and the viability index was 1.13 ± 0.068. In the case of `CO[C@@H]1CN(C)C(=O)c2ccc(NS(=O)(=O)CC(F)(F)F)cc2OC[C@H](C)N(C(=O)NC(C)C)C[C@H]1C`, the viability index is reported as 1.04 ± 0.026. Compound `CN1CCN(C(=O)C[C@@H]2CC[C@@H]3[C@H](COC[C@@H](O)CN3C(=O)Nc3ccc4c(c3)OCO4)O2)CC1` has a viability index of 0.975 ± 0.089. Work on `CO[C@@H](CN(C)S(=O)(=O)c1ccc(C)cc1)[C@@H](C)CN(C(=O)Nc1ccccc1F)[C@H](C)CO` yielded a viability index of 1.04 ± 0.021. `Cc1ccc(S(=O)(=O)Nc2ccc3c(c2)C(=O)N([C@@H](C)CO)C[C@H](C)[C@H](CN(C)S(=O)(=O)c2cccs2)OCCCC[C@@H](C)O3)cc1` gave a viability index of 1.07 ± 0.05. Work on `C[C@@H]1CN([C@@H](C)CO)C(=O)c2cc(NC(=O)Cc3ccccc3)ccc2O[C@@H](C)CCCCO[C@@H]1CN(C)Cc1ccncc1` yielded a viability index of 1.02 ± 0.08. Compound `C[C@H](CO)N1C[C@H](C)[C@H](CN(C)S(=O)(=O)c2cn(C)cn2)Oc2ncc(C3=CCCCC3)cc2C1=O` has a viability index of 0.931 ± 0.064. With `OC[C@H]1[C@@H](c2ccccc2)C2(CN(CCC(F)(F)F)C2)N1Cc1cncnc1` the viability index was 1.09 ± 0.026. Work on `COc1ccc(CN(C)C[C@@H]2OCCCC[C@@H](C)Oc3ccc(NC(=O)C4CCCCC4)cc3C(=O)N([C@@H](C)CO)C[C@@H]2C)cc1` yielded a viability index of 1.11 ± 0.031. For `CC(C)C#Cc1ccc([C@@H]2[C@H](CO)N3C(=O)CN(C(=O)c4ccc5c(c4)OCO5)C[C@@H]23)cc1`, the viability index was 1.13 ± 0.021. Compound `CO[C@@H](CN(C)S(=O)(=O)c1ccc(F)cc1)[C@@H](C)CN(Cc1ccccc1Cl)[C@H](C)CO` has a viability index of 0.9994 ± 0.0071. `CN1C(=O)c2cc(NC(=O)c3ccc(F)c(F)c3)ccc2OC[C@@H]2O[C@H](CC(=O)N3CCCCC3)CC[C@@H]21` showed a viability index of 1.08 ± 0.042. With `C[C@@H]1CN([C@H](C)CO)C(=O)c2cccc(NC(=O)Nc3ccc(C(F)(F)F)cc3)c2O[C@@H]1CN(C)S(=O)(=O)c1cn(C)cn1` the viability index was 0.921 ± 0.13. In the case of `COCC(=O)Nc1ccc2c(c1)OC[C@@H](C)N(C)C[C@H](C)[C@@H](OC)CN(C)C2=O`, the viability index is reported as 1.09 ± 0.069. Work on `CO[C@H]1CN(C)C(=O)c2cc(NS(=O)(=O)CC(F)(F)F)ccc2OC[C@@H](C)NC[C@@H]1C` yielded a viability index of 1.05 ± 0.016. `C[C@H]1CCCCO[C@@H](CN(C)S(=O)(=O)c2ccc(F)cc2)[C@@H](C)CN([C@@H](C)CO)C(=O)c2cc(N(C)C)ccc2O1` gave a viability index of 1.09 ± 0.079. In the case of `O=C(C[C@@H]1CC[C@H]2[C@@H](COC[C@@H](O)CN2C(=O)c2ccc3c(c2)OCO3)O1)NC1CCC1`, the viability index is reported as 0.958 ± 0.19. With `CNC[C@H]1OCCCC[C@H](C)Oc2ccc(NC(=O)Nc3ccc(OC)cc3)cc2C(=O)N([C@@H](C)CO)C[C@@H]1C` the viability index was 1.05 ± 0.087. In the case of `CO[C@H](CN(C)S(=O)(=O)c1cccc(Cl)c1)[C@H](C)CN(C(=O)Nc1ccccc1F)[C@H](C)CO`, the viability index is reported as 1.01 ± 0.012. Work on `CC(=O)N1[C@@H]2CN(S(=O)(=O)c3ccccc3C)c3ccccc3[C@@H]2[C@@H]1CO` yielded a viability index of 1.07 ± 0.072. `O=C(C[C@H]1CC[C@@H]2NC[C@H](O)COC[C@H]2O1)NCc1ccc2c(c1)OCO2` gave a viability index of 1.04 ± 0.044. Work on `CO[C@H]1CN(C)C(=O)c2ccc(NC(=O)Nc3ccccc3F)cc2OC[C@@H](C)N(CC2CC2)C[C@H]1C` yielded a viability index of 1.11 ± 0.021. `CCCNC(=O)N1CC(=O)N2[C@H](C1)[C@@H](c1ccc(C#CCC3CCCC3)cc1)[C@@H]2CO` gave a viability index of 1.11 ± 0.12. Compound `CCCNC(=O)Nc1ccc2c(c1)OC[C@@H](C)N(S(C)(=O)=O)C[C@H](C)[C@H](OC)CN(C)C2=O` has a viability index of 0.998 ± 0.015. With `CN1CCN(C(=O)C[C@@H]2CC[C@@H]3[C@H](COC[C@H](O)CN3Cc3cccc(-c4ccncc4)c3)O2)CC1` the viability index was 1.1 ± 0.027. With `COCC(=O)N1CC2(C1)[C@H](c1ccc(-c3ccc(C)cc3)cc1)[C@H](CO)N2C(C)=O` the viability index was 1.15 ± 0.0016. For `CN1C[C@H]2[C@@H](c3ccccc31)[C@@H](CO)N2S(=O)(=O)c1ccccc1`, the viability index was 1.025 ± 0.0018. `C[C@@H]1CN([C@H](C)CO)C(=O)CCCn2nncc2CO[C@H]1CN(C)Cc1ccc2cccnc2c1` was tested, and the viability index was 0.985 ± 0.022. For `CN1C(=O)c2cc(NC(=O)Nc3ccccc3Cl)ccc2OC[C@H]2O[C@@H](CC(=O)NCCCN3CCOCC3)CC[C@@H]21`, the viability index was 1.02 ± 0.074. Compound `C[C@H]1CC(=O)NCC/C=C\C[C@H](c2ccc3c(c2)OCO3)NC1=O` has a viability index of 0.956 ± 0.024. Compound `CN(C)C(=O)c1cccc(-c2ccc([C@@H]3[C@@H]4CN(C(=O)Cc5ccccc5)C[C@H]3N4)cc2)c1` has a viability index of 1.13 ± 0.053. In the case of `CO[C@@H](CN(C)Cc1ccc2c(c1)OCO2)[C@H](C)CN(C(=O)c1ccccc1)[C@H](C)CO`, the viability index is reported as 1.03 ± 0.083. `CCCC#Cc1ccc2c(c1)[C@H]1[C@H](CCN1Cc1ccccc1F)[C@@H](CO)N2` was tested, and the viability index was 1.08 ± 0.019.
